From PubChem BioAssay AID1030 (National Center for Advancing Translational Sciences (NCATS), 2008)
In all, about 220,000 compounds went through this assay and about 16,000 (7.3%) were called active. This list was built around the results that the source calls inconclusive (neither active nor inactive); the mix of calls is not that of the screen. Calls follow the shape of the dose curve; as a rule, active = well fitted inhibition curve with a large enough effect (not every such curve was filed as active); inconclusive = small, poorly fitted or top-dose-only effect, or another doubt; inactive = no such curve, though single readings can be large or run the other way. Potencies of inconclusive entries are left out as doubtful fits.
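For activity, negative = inhibition in this document: plate controls were no enzyme wells and a reference inhibitor.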
Potency is read from the fitted curve at half-maximal effect; tags tell the direction and shape of the fitted curve.

Each compound was assayed against Aldehyde dehydrogenase 1A1 (Homo sapiens) (UniProt P00352) (assay: qHTS Assay for Inhibitors of Aldehyde Dehydrogenase 1 (ALDH1A1)). Settings: Purified ALDH1A1, NADH fluorescence, propionaldehyde substrate; series mostly up to 75.3 µM; activity, negative = inhibition: at the top concentration.
Sequence of UniProt P00352 (P00352 whole entry, looked up): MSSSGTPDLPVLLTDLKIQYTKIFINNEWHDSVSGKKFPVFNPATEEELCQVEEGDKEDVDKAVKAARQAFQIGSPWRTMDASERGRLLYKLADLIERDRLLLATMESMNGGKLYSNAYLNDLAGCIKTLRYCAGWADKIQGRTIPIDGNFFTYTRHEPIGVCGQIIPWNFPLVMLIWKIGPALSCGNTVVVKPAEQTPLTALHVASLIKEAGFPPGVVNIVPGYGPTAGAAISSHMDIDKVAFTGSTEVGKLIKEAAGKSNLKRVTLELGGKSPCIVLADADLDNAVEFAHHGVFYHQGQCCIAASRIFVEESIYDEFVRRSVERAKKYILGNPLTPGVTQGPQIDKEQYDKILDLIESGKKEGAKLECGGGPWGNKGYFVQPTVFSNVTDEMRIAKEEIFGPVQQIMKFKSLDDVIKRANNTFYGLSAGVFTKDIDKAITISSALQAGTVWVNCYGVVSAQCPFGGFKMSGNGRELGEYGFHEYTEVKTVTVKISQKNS
In the case of `CCOc1ccc(NC(=O)CC2SC(=O)N(c3ccccc3)C2=O)cc1` (centres undefined), the Potency was active: 7.94 µM. For `Cc1cc(C(=O)C(C)Sc2cccc[n+]2[O-])c(C)n1-c1ccc(Cl)cc1` (centres undefined), the Potency was inconclusive [inhibitor, single point]. In the case of `O=C(Nc1ccc(N2CCN(C(=O)c3ccccc3)CC2)c(Cl)c1)c1ccc(Br)o1`, the Potency was inconclusive [inhibitor, single point]. With `CCOC(=O)C1C(=O)CC(C)(O)C(C(=O)OCC)C1c1cccc(OC(F)(F)C(F)F)c1` (centres undefined) the Potency was inconclusive [inhibitor, partial curve]. In the case of `CCOCCCNC(=O)c1c[nH]c2c(CC)cccc2c1=O`, the Potency was inconclusive [inhibitor, partial curve, poor fit]. With `COc1ccc(NC(=O)CCCC2CCCCC2)cc1S(=O)(=O)N1CCCCC1` the Potency was inconclusive [inhibitor, single point]. `Brc1ccc(-c2nnc(-c3ccccc3Br)o2)cc1` was tested, and the Potency was inconclusive [inhibitor, partial curve]. In the case of `Cc1ccc(SCn2nnc3ccccc3c2=O)c(C)c1`, the “activity, negative = inhibition” value was inactive: 0.231%. For `CCOC(=O)c1c(NC(=O)C2CC2)sc(C)c1CC`, the Potency was active: 22.4 µM. In the case of `COc1cccc2cc(C(=O)C3=C(O)C(=O)N(CCN4CCOCC4)C3c3cccs3)oc12` (centres undefined), the Potency was active: 25.1 µM. For `Cc1sc2ncnc(OCC(=O)N3CCN(S(=O)(=O)c4ccc(Cl)cc4)CC3)c2c1C`, the Potency was inconclusive [inhibitor, partial curve]. In the case of `NC(=O)c1sc2nc(N3CCCCC3)c3c(c2c1N)CCCC3`, the Potency was inconclusive [inhibitor, partial curve]. For `CO/N=C\[C@@H](NS(=O)(=O)c1ccc(C)cc1)[C@H](C)/C=C\CC(=O)OC`, the Potency was inconclusive [inhibitor, partial curve]. With `C=CCNC(=S)NNC(=O)c1cccn(Cc2ccc(Cl)cc2Cl)c1=O` the Potency was inconclusive [inhibitor, single point]. For `Cc1csc(NC(=O)CCS(=O)(=O)c2ccc(Br)cc2)n1`, the Potency was inconclusive [inhibitor, single point]. In the case of `CC(C)=CCOc1c2ccoc2cc2oc(=O)ccc12`, the Potency was inconclusive [inhibitor, single point]. In the case of `CCOc1cc(N2CCOCC2)c(OCC)cc1NC(=O)CN1C(=O)C2C3C=CC(C3)C2C1=O` (centres undefined), the “activity, negative = inhibition” value was inactive: -2.02%. In the case of `O=C(/C=C/c1cccc(F)c1)Nc1ccc(S(=O)(=O)Nc2ncccn2)cc1`, the “activity, negative = inhibition” value was inactive: -5.05%. With `O=S(=O)(NCCc1csc(-c2ccccc2)n1)c1ccc2c(c1)OCCO2` the Potency was inconclusive [inhibitor, single point]. With `COc1ccc([N+](=O)[O-])cc1N(CC(=O)N1CCOCC1)S(C)(=O)=O` the “activity, negative = inhibition” value was inactive: 4.29%. In the case of `CCCCC[C@H](O)/C=C/[C@H]1OC(=O)C[C@H](O)[C@@H]1C/C=C\CCCC(=O)O`, the Potency was inconclusive [inhibitor, single point]. In the case of `COc1ccc(CCNC(=O)Cn2c(=O)n(Cc3ccco3)c(=O)c3ccc(Cl)cc32)cc1OC`, the Potency was inconclusive [inhibitor, partial curve]. In the case of `C[C@@H]1CC[C@H]2C(=O)O[C@H](CN=[N+]=[N-])CN2[C@@H]1c1ccc(Br)cc1`, the Potency was inconclusive [inhibitor, single point]. `CCC(C)c1ccc(S(=O)(=O)N2CCN(C(C)CC(=O)O)CC2)cc1` (centres undefined) was tested, and the Potency was inconclusive [inhibitor, single point]. In the case of `COc1cccc(C2NC(=O)c3sc(=S)n(-c4ccccc4)c3N2)c1` (centres undefined), the “activity, negative = inhibition” value was inactive: -8.5%. With `CCCSc1nnc(NC(=O)c2sc3nc(-c4cccs4)ccc3c2N)s1` the Potency was inconclusive [inhibitor, partial curve]. With `COc1cccc(Cn2c(=O)c(CCc3ccccc3)nc3cnc(N4CCOCC4)nc32)c1` the Potency was inconclusive [inhibitor, full curve]. With `FC(F)(F)c1cccc(-c2noc(-c3cc(-c4ccccc4)c(C(F)(F)F)s3)n2)c1` the “activity, negative = inhibition” value was inactive: 3.78%. For `O=S(=O)(NCCSc1ccccc1)c1ccc(F)cc1`, the Potency was inconclusive [inhibitor, partial curve]. For `O=[N+]([O-])c1c(C(Cl)Cl)nn(-c2ccc(Cl)cc2)c1N1CCCCC1`, the “activity, negative = inhibition” value was inactive: 1.85%. `COc1cccc(-c2cc(=O)c3ccc(OC)cc3o2)c1` was tested, and the Potency was inconclusive [inhibitor, partial curve]. With `NC(=O)NCC12CC3CC(CC(C3)C1)C2` the Potency was inconclusive [inhibitor, single point]. In the case of `O=C1Oc2ccccc2C(=O)/C1=C/c1ccccc1O`, the Potency was inconclusive [inhibitor, full curve]. With `O=c1[nH]c2ccccc2nc1C(Cl)c1ccccc1` (centres undefined) the Potency was inconclusive [inhibitor, single point]. `CC(C)(C)n1ncc2c(=O)n(CC(=O)c3ccc(Cl)cc3)cnc21` was tested, and the Potency was inconclusive [inhibitor, single point]. With `Cc1ccc(-c2cnc3cc(C)nn3c2)cc1` the Potency was inconclusive [inhibitor, single point]. With `O=C(/C=C/c1ccc(Cl)cc1Cl)c1ccc[nH]1` the “activity, negative = inhibition” value was inactive: -14.5%. `O=C(Oc1cccc2cccnc12)c1ccccc1` was tested, and the “activity, negative = inhibition” value was inactive: 7.98%. In the case of `NC(=O)NNc1cccc(Cl)n1`, the Potency was active: 35.5 µM. With `CCOc1ccccc1Oc1c(C)oc2cc(OC(=O)c3ccco3)ccc2c1=O` the Potency was inconclusive [inhibitor, single point]. With `Cc1cccc(OCC(=O)O/N=C(\N)Cc2ccc([N+](=O)[O-])cc2)c1` the “activity, negative = inhibition” value was inactive: -7.5%. For `S=C(Nc1ccc(N2CCOCC2)cc1)Nc1ccc2snnc2c1`, the Potency was active: 25.1 µM. For `CC(C)c1ccc(C(=O)CC2(O)C(=O)N(CN3CCOCC3)c3ccccc32)cc1` (centres undefined), the Potency was inconclusive [inhibitor, single point]. `COc1ccc(COCC(O)CN2CCC(CN3C(=O)c4cccc5cccc(c45)C3=O)CC2)cc1OC` (centres undefined) was tested, and the Potency was inconclusive [inhibitor, single point].
